The source of these data is US20230003721A1, “MITOTHERAPEUTICS FOR THE TREATMENT OF BRAIN DISORDERS” (The University of Florida Research Foundation, Inc., priority 2019, published 2023).

Each structure is given as a SMILES string.

The test system of the assay is primary neurons. The conditions noted are these: 10 μM Aβ(1-42), 12.5 μM compound, 48 h co-treatment.
Turning to `O=C(/C=C/c1ccccc1)c1ccc(O)cc1` [4′-HYDROXYCHALCONE], the “protection from Aβ(1-42) induced mitochondrial fragmentation” value (“protection” for short) is on record as “complete protection”. For the compound `COc1cc(O)c2c(=O)c(O)c(-c3ccc(O)c(O)c3)oc2c1` [RHAMNETIN], the “protection” value is given as “complete protection”. Take `O=C(/C=C/c1ccccc1)c1ccc(O)cc1O` [2′,4′-DIHYDROXYCHALCONE]: the “protection” value is recorded as “complete protection”.
